The results in this text go back to article PMC4661828.

Amino acid sequences for entries named in this document (tags omitted).
UniProt Q9C6M5: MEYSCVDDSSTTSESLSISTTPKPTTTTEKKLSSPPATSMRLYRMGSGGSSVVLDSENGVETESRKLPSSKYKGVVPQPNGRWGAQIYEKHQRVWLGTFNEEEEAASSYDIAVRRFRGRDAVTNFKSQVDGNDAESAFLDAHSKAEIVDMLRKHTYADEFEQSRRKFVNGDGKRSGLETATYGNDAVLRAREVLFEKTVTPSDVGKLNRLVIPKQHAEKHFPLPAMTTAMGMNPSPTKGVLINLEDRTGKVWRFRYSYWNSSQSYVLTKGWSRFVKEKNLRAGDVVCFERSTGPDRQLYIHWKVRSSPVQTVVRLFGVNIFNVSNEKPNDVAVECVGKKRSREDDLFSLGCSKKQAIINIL
UniProt P82280: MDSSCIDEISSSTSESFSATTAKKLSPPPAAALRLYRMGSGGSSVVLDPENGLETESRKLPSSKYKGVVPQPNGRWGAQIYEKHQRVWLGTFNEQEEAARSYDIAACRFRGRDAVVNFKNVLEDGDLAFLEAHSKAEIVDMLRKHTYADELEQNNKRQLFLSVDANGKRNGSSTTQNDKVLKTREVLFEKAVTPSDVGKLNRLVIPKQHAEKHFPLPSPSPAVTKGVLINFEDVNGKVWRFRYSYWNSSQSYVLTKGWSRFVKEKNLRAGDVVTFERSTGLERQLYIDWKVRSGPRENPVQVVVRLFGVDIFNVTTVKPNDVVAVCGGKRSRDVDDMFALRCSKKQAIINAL
UniProt Q9S7Q7: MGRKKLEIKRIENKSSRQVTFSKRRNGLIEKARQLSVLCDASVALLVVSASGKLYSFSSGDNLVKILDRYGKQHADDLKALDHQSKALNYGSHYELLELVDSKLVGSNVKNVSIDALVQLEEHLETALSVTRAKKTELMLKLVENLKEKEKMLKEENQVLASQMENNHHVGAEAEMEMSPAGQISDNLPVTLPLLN

Like-named read-outs stand apart in the source and are kept apart here. Results are given in words; binding and its absence hold for the method and conditions named. For some of these results: Binding seen in cells or lysates may run through a third protein. Some entries that bind do so weakly or less than the wild type. For some of these results: Where a sequence is shown, tags or fusion partners need not be part of it.

Test [1] has as its target T1, CONSTITUTIVE PHOTOMORPHOGENIC 10 (COP10), full-length, two-hybrid bait in pGBKT7 (Arabidopsis thaliana) (UniProt Q9LJD7).
T1 sequence: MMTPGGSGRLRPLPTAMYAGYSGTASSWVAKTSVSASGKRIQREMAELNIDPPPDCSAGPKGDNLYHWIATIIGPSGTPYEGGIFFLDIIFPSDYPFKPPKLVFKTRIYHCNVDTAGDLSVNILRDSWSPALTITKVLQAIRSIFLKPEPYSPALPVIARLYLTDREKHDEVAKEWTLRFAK
The test can be described thus: two-hybrid; … GAL4 system 3, yeast AH109; COP10 in pGBKT7 as bait, partners in pGADT7 as prey; growth on medium lacking adenine, leucine, histidine and tryptophan; CPRG beta-galactosidase assay.

Test [2] deals with T1, CONSTITUTIVE PHOTOMORPHOGENIC 10 (COP10), full-length, two-hybrid bait in pGBKT7 (Arabidopsis thaliana). Described as above. The source holds these as a separate data set.
In test [3] the target is T2, cYFP-COP10 (BiFC construct) (Arabidopsis thaliana) (UniProt Q9LJD7).
T2 sequence: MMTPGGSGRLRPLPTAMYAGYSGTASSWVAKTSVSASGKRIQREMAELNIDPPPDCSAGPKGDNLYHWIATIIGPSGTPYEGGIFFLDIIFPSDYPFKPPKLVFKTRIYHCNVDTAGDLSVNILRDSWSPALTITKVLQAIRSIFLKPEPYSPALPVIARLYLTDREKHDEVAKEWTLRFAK
Briefly: split reporter; BiFC, nEYFP and cEYFP fusion plasmids co-bombarded 1:1 into onion epidermal cells; MG132, 16-24 h at 22 °C in the dark; confocal microscopy.

Test [4] addresses T3, COP10-cYFP (BiFC construct) (Arabidopsis thaliana) (UniProt Q9LJD7).
T3 sequence: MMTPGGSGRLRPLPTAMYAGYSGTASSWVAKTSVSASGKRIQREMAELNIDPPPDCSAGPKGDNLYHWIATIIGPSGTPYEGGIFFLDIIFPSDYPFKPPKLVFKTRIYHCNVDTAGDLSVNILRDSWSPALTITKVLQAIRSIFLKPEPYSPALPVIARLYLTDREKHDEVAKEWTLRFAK
The test can be described thus: split reporter; BiFC, nEYFP and cEYFP fusion plasmids co-bombarded 1:1 into onion epidermal cells; MG132, 16-24 h at 22 °C in the light; confocal microscopy.

Regarding “…O1 (TEM1), two-hybrid prey (from UniProt Q9C6M5 1-361)”, the binding entry in test [1] is on record as “no binding”.
Take “SHORT … PHASE (SVP), two-hybrid prey (from UniProt Q9FVC1 1-240)”: in test [1], the binding result was “no binding”.
On the same count and under the same terms, with “…O2 (TEM2), two-hybrid prey (from UniProt P82280 1-352)” the entry was “no binding”.
As to “FLOWERING LOCUS C (FLC), two-hybrid prey (from UniProt Q9S7Q7 1-196)”, in test [1], the binding result is recorded as “no binding”.

B1: GIGANTEA (GI), full-length, two-hybrid prey (protein, UniProt Q9SQI2 1-1173)
chain: MASSSSSERWIDGLQFSSLLWPPPRDPQQHKDQVVAYVEYFGQFTSEQFPDDIAELVRHQYPSTEKRLLDDVLAMFVLHHPEHGHAVILPIISCLIDGSLVYSKEAHPFASFISLVCPSSENDYSEQWALACGEILRILTHYNRPIYKTEQQNGDTERNCLSKATTSGSPTSEPKAGSPTQHERKPLRPLSPWISDILLAAPLGIRSDYFRWCSGVMGKYAAGELKPPTIASRGSGKHPQLMPSTPRWAVANGAGVILSVCDDEVARYETATLTAVAVPALLLPPPTTSLDEHLVAGLPALEPYARLFHRYYAIATPSATQRLLLGLLEAPPSWAPDALDAAVQLVELLRAAEDYASGVRLPRNWMHLHFLRAIGIAMSMRAGVAADAAAALLFRILSQPALLFPPLSQVEGVEIQHAPIGGYSSNYRKQIEVPAAEATIEATAQGIASMLCAHGPEVEWRICTIWEAAYGLIPLNSSAVDLPEIIVATPLQPPILSWNLYIPLLKVLEYLPRGSPSEACLMKIFVATVETILSRTFPPESSRELTRKARSSFTTRSATKNLAMSELRAMVHALFLESCAGVELASRLLFVVLTVCVSHEAQSSGSKRPRSEYASTTENIEANQPVSNNQTANRKSRNVKGQGPVAAFDSYVLAAVCALACEVQLYPMISGGGNFSNSAVAGTITKPVKINGSSKEYGAGIDSAISHTRRILAILEALFSLKPSSVGTPWSYSSSEIVAAAMVAAHISELFRRSKALTHALSGLMRCKWDKEIHKRASSLYNLIDVHSKVVASIVDKAEPLEAYLKNTPVQKDSVTCLNWKQENTCASTTCFDTAVTSASRTEMNPRGNHKYARHSDEGSGRPSEKGIKDFLLDASDLANFLTADRLAGFYCGTQKLLRSVLAEKPELSFSVVSLLWHKLIAAPEIQPTAESTSAQQGWRQVVDALCNVVSATPAKAAAAVVLQAERELQPWIAKDDEEGQKMWKINQRIVKVLVELMRNHDRPESLVILASASDLLLRATDGMLVDGEACTLPQLELLEATARAIQPVLAWGPSGLAVVDGLSNLLKCRLPATIRCLSHPSAHVRALSTSVLRDIMNQSSIPIKVTPKLPTTEKNGMNSPSYRFFNAASIDWKADIQNCLNWEAHSLLSTTMPTQFLDTAARELGCTISLSQ
B1: the binding result in test [2] is “binds”.

B2: nYFP-GI (BiFC construct) (protein, UniProt Q9SQI2 1-1173)
chain: MASSSSSERWIDGLQFSSLLWPPPRDPQQHKDQVVAYVEYFGQFTSEQFPDDIAELVRHQYPSTEKRLLDDVLAMFVLHHPEHGHAVILPIISCLIDGSLVYSKEAHPFASFISLVCPSSENDYSEQWALACGEILRILTHYNRPIYKTEQQNGDTERNCLSKATTSGSPTSEPKAGSPTQHERKPLRPLSPWISDILLAAPLGIRSDYFRWCSGVMGKYAAGELKPPTIASRGSGKHPQLMPSTPRWAVANGAGVILSVCDDEVARYETATLTAVAVPALLLPPPTTSLDEHLVAGLPALEPYARLFHRYYAIATPSATQRLLLGLLEAPPSWAPDALDAAVQLVELLRAAEDYASGVRLPRNWMHLHFLRAIGIAMSMRAGVAADAAAALLFRILSQPALLFPPLSQVEGVEIQHAPIGGYSSNYRKQIEVPAAEATIEATAQGIASMLCAHGPEVEWRICTIWEAAYGLIPLNSSAVDLPEIIVATPLQPPILSWNLYIPLLKVLEYLPRGSPSEACLMKIFVATVETILSRTFPPESSRELTRKARSSFTTRSATKNLAMSELRAMVHALFLESCAGVELASRLLFVVLTVCVSHEAQSSGSKRPRSEYASTTENIEANQPVSNNQTANRKSRNVKGQGPVAAFDSYVLAAVCALACEVQLYPMISGGGNFSNSAVAGTITKPVKINGSSKEYGAGIDSAISHTRRILAILEALFSLKPSSVGTPWSYSSSEIVAAAMVAAHISELFRRSKALTHALSGLMRCKWDKEIHKRASSLYNLIDVHSKVVASIVDKAEPLEAYLKNTPVQKDSVTCLNWKQENTCASTTCFDTAVTSASRTEMNPRGNHKYARHSDEGSGRPSEKGIKDFLLDASDLANFLTADRLAGFYCGTQKLLRSVLAEKPELSFSVVSLLWHKLIAAPEIQPTAESTSAQQGWRQVVDALCNVVSATPAKAAAAVVLQAERELQPWIAKDDEEGQKMWKINQRIVKVLVELMRNHDRPESLVILASASDLLLRATDGMLVDGEACTLPQLELLEATARAIQPVLAWGPSGLAVVDGLSNLLKCRLPATIRCLSHPSAHVRALSTSVLRDIMNQSSIPIKVTPKLPTTEKNGMNSPSYRFFNAASIDWKADIQNCLNWEAHSLLSTTMPTQFLDTAARELGCTISLSQ
On to B2, for which the binding result in test [3] is recorded as “binds”.

B3: GI C-terminal region (aa 801-1173), two-hybrid prey (domain or fragment, UniProt Q9SQI2 801-1173)
chain: LEAYLKNTPVQKDSVTCLNWKQENTCASTTCFDTAVTSASRTEMNPRGNHKYARHSDEGSGRPSEKGIKDFLLDASDLANFLTADRLAGFYCGTQKLLRSVLAEKPELSFSVVSLLWHKLIAAPEIQPTAESTSAQQGWRQVVDALCNVVSATPAKAAAAVVLQAERELQPWIAKDDEEGQKMWKINQRIVKVLVELMRNHDRPESLVILASASDLLLRATDGMLVDGEACTLPQLELLEATARAIQPVLAWGPSGLAVVDGLSNLLKCRLPATIRCLSHPSAHVRALSTSVLRDIMNQSSIPIKVTPKLPTTEKNGMNSPSYRFFNAASIDWKADIQNCLNWEAHSLLSTTMPTQFLDTAARELGCTISLSQ
B3: the binding entry in test [2] was “binds”.

B4: GI N-terminal region (aa 1-507), two-hybrid prey (domain or fragment, UniProt Q9SQI2 1-507)
chain: MASSSSSERWIDGLQFSSLLWPPPRDPQQHKDQVVAYVEYFGQFTSEQFPDDIAELVRHQYPSTEKRLLDDVLAMFVLHHPEHGHAVILPIISCLIDGSLVYSKEAHPFASFISLVCPSSENDYSEQWALACGEILRILTHYNRPIYKTEQQNGDTERNCLSKATTSGSPTSEPKAGSPTQHERKPLRPLSPWISDILLAAPLGIRSDYFRWCSGVMGKYAAGELKPPTIASRGSGKHPQLMPSTPRWAVANGAGVILSVCDDEVARYETATLTAVAVPALLLPPPTTSLDEHLVAGLPALEPYARLFHRYYAIATPSATQRLLLGLLEAPPSWAPDALDAAVQLVELLRAAEDYASGVRLPRNWMHLHFLRAIGIAMSMRAGVAADAAAALLFRILSQPALLFPPLSQVEGVEIQHAPIGGYSSNYRKQIEVPAAEATIEATAQGIASMLCAHGPEVEWRICTIWEAAYGLIPLNSSAVDLPEIIVATPLQPPILSWNLYIPLLKV
Turning to B4, the binding entry in test [2] is on record as “binds”.

B5: GI middle region (aa 401-907), two-hybrid prey (domain or fragment, UniProt Q9SQI2 401-907)
chain: ALLFPPLSQVEGVEIQHAPIGGYSSNYRKQIEVPAAEATIEATAQGIASMLCAHGPEVEWRICTIWEAAYGLIPLNSSAVDLPEIIVATPLQPPILSWNLYIPLLKVLEYLPRGSPSEACLMKIFVATVETILSRTFPPESSRELTRKARSSFTTRSATKNLAMSELRAMVHALFLESCAGVELASRLLFVVLTVCVSHEAQSSGSKRPRSEYASTTENIEANQPVSNNQTANRKSRNVKGQGPVAAFDSYVLAAVCALACEVQLYPMISGGGNFSNSAVAGTITKPVKINGSSKEYGAGIDSAISHTRRILAILEALFSLKPSSVGTPWSYSSSEIVAAAMVAAHISELFRRSKALTHALSGLMRCKWDKEIHKRASSLYNLIDVHSKVVASIVDKAEPLEAYLKNTPVQKDSVTCLNWKQENTCASTTCFDTAVTSASRTEMNPRGNHKYARHSDEGSGRPSEKGIKDFLLDASDLANFLTADRLAGFYCGTQKLLRSVLAEKPE
As for B5, the binding result in test [2] is on record as “no binding”.

B6: nYFP-MSI4 (MULTICOPY SUPPRESSOR OF IRA1 4/FVE, BiFC construct) (protein, UniProt O22607 1-507)
chain: MESDEAAAVSPQATTPSGGTGASGPKKRGRKPKTKEDSQTPSSQQQSDVKMKESGKKTQQSPSVDEKYSQWKGLVPILYDWLANHNLVWPSLSCRWGPQLEQATYKNRQRLYLSEQTDGSVPNTLVIANCEVVKPRVAAAEHISQFNEEARSPFVKKYKTIIHPGEVNRIRELPQNSKIVATHTDSPDVLIWDVETQPNRHAVLGAANSRPDLILTGHQDNAEFALAMCPTEPFVLSGGKDKSVVLWSIQDHITTIGTDSKSSGSIIKQTGEGTDKNESPTVGPRGVYHGHEDTVEDVAFSPTSAQEFCSVGDDSCLILWDARTGTNPVTKVEKAHDADLHCVDWNPHDDNLILTGSADNTVRLFDRRKLTANGVGSPIYKFEGHKAAVLCVQWSPDKSSVFGSSAEDGLLNIWDYDRVSKKSDRAAKSPAGLFFQHAGHRDKVVDFHWNASDPWTIVSVSDDCETTGGGGTLQIWRMSDLIYRPEEEVVAELEKFKSHVMTCASKP
Turning to B6, the binding result in test [4] is recorded as “binds”.
